Hit rate of the full screen: of about 52,000 compounds, about 4,300 (8.3%) were called active. Rule as the data show it: active = survival mostly below about 52% (no sharp cut-off); inactive = mostly above about 56%. This is one part of the list.

In this assay the test system is DeltatarO mutant. Description: S. aureus survival, RN4220 and DeltatarO strains – OD600, teichoic acid synthesis inhibitors, primary screen (AID 463173). Particulars: S. aureus RN4220 wild type/DeltatarO growth, OD600, 18 h, hits give low values, screened at 18.75 µg/mL (by protocol).
As to `CN(C)C(=O)CN(C#N)c1nc(Cl)nc(N(C)C)n1`, the survival was inactive: 92%.

Regarding `Cc1ccc(N(CC(=O)Nc2ccc(F)cc2F)S(=O)(=O)c2cccs2)cc1`, the survival is inactive: 68%.

Regarding `COc1ccc(S(=O)(=O)NNc2ncnc3sc4c(c23)CCCC4)cc1`, the survival was inactive: 64%.

Take `Cc1c(NC=C(C#N)C#N)c(=O)n(-c2ccccc2)n1C`: the survival is inactive: 96%.

As to `CCN(CC)S(=O)(=O)c1ccc(-c2csc(=Nc3cccc(C(F)(F)F)c3)n2Cc2ccc3c(c2)OCO3)cc1`, the survival is inactive: 150%.

As to `CCc1ccc(CNC(=O)Cn2nc(-c3ccc(Cl)cc3)ccc2=O)cc1`, the survival is inactive: 79%.

Regarding `COc1ccc(C2c3c(n(C)c4ccccc34)C(=O)N2CC(=O)Nc2ccc(C)cc2Cl)cc1` (stereo not given), the survival is inactive: 61%.

Turning to `CN(C)c1ccc(CNC(=O)C2CCN(S(=O)(=O)c3ccc4c(c3)oc(=O)n4C)CC2)cc1`, the survival was inactive: 94%.

Take `COc1cccc(NC(=O)Cn2c(=O)n(Cc3ccc(C(=O)NCc4ccc5c(c4)OCO5)cc3)c(=O)c3ccccc32)c1`: the survival is inactive: 107%.

In the case of `Cc1ccc(S(=O)(=O)N2CCCc3cc(NS(=O)(=O)c4ccc(F)cc4)ccc32)cc1`, the survival is inactive: 74%.

On to `O=C(CC1CCCCC1)N1CCN(c2ccccc2)CC1`, for which the survival is inactive: 82%.

Regarding `CCCCCCc1cc2cc(-c3nnc(-c4cccc(Cl)c4)o3)c(=O)oc2cc1O`, the survival was inactive: 80%.

Turning to `Cc1ccc(NC(=O)c2oc3ccc(S(=O)(=O)N4CCCCC4)cc3c2C)c(C)c1`, the survival was inactive: 79%.

For `Cc1cc(C)c(NC(=O)CN2C(=O)C3(SCC(=O)N3c3ccc(F)cc3)c3ccccc32)c(C)c1` (stereo not given), the survival was inactive: 74%.

Consider `Cc1cc(C)c(NC(=O)c2c(C)oc3c2C2=NCCN2C=N3)c(C)c1`, for which the survival is inactive: 91%.

`Cc1cccc(N2CCN(C(=O)C(C)n3nc(C)n4c(cc5occc54)c3=O)CC2)c1C` (stereo not given): the survival is inactive: 78%.

With `COc1ccc(C(=O)N2c3nc(-c4ccco4)nn3C3(CCCCC3)[C@@H]3CCCC[C@@H]32)cc1OC`, the survival was inactive: 62%.

`O=C(Nc1ccc(F)cc1)c1oc2ccccc2c1NC(=O)C1CCCCC1`: the survival is active: 11%.

For `CCC(Oc1ccc(F)cc1)C(=O)Nc1nc2c(s1)CCCC2` (stereo not given), the survival is inactive: 83%.

Turning to `CC1=CC(C)C2(COC(=O)Nc3ccccc3)COC(C)C1C2C` (stereo not given), the survival is inactive: 95%.

Consider `CC(=O)Nc1ccc(Oc2ccccc2)cc1`, for which the survival is inactive: 80%.

`CCc1ccc(-c2cc(C)no2)cc1S(=O)(=O)NCc1ccco1`: the survival is inactive: 87%.

`c1ccc(-c2nc3ccccn3c2NC2CCCC2)nc1`: the survival is active: 1%.

For the compound `CCOc1ccc(CCNC(=O)c2ccc(-n3c(C)cc4c3CCCC4)cc2)cc1OCC`, the survival was inactive: 67%.

On to `CCOC(=O)CNC(=O)c1cc2c(=O)oc3ccccc3c2s1`, for which the survival was inactive: 170%.

In the case of `CCCCNc1nc2c(S(=O)(=O)c3ccc(C)cc3)nnn2c2ccsc12`, the survival was inactive: 114%.

Consider `CCOc1ccc(N2CC(NC(=O)c3ccc4c(c3)OCO4)CC2=O)cc1` (stereo not given), for which the survival was inactive: 70%.

As for `Cc1cc(C)n(CCC(=O)Nc2ccc(Cl)cc2)n1`, the survival is inactive: 87%.

In the case of `Cc1ccc(C)c(N2CCN(c3nc4ccc(C)cc4nc3-n3nc(C)cc3C)CC2)c1`, the survival was inactive: 102%.

As for `O=C(Nc1ccccc1C(=O)OCc1cc(=O)n2nc(C3CC3)sc2n1)c1ccc(Cl)cc1`, the survival is inactive: 78%.

Regarding `CCOCCc1nnc(NC(=O)C(=O)c2cc(C)n(-c3ccc(C)c(C)c3)c2C)s1`, the survival is inactive: 55%.

On to `Cc1ccc(N2CCN(S(=O)(=O)c3nnc(NC(=O)c4ccccc4)s3)CC2)cc1`, for which the survival is inactive: 57%.

Consider `Cc1c(C)n(Cc2ccccc2)c2ccc(C(=O)NCC(C)c3ccccc3)cc12` (stereo not given), for which the survival is inactive: 75%.

Turning to `O=C1/C(=C\c2ccco2)SC(=S)N1Cc1ccccc1`, the survival is inactive: 73%.

`O=C(CSc1nc2c([nH]c3ccccc32)c(=O)n1-c1cccc(Cl)c1)N1CCCC1`: the survival was inactive: 75%.

Turning to `O=C(Cn1cc(S(=O)(=O)Cc2cccc(Cl)c2)c2ccccc21)Nc1ccccc1C(F)(F)F`, the survival was inactive: 88%.

Regarding `CCOc1ccc(CCNC(=O)c2ccc3c(c2)N(Cc2ccc(F)cc2)CCS3)cc1`, the survival was inactive: 71%.

With `O=C(NCC(c1cccs1)S(=O)(=O)c1cccs1)c1ccc(F)c(F)c1` (stereo not given), the survival was inactive: 83%.

Consider `COC(=O)c1sccc1S(=O)(=O)N(CC(=O)Nc1cc(C)ccc1C)c1ccc(C)c(C)c1`, for which the survival is inactive: 88%.

For `C=CCc1c(C)nc(SC)nc1Nc1ccc(OC)cc1`, the survival was inactive: 72%.

As for `Cc1ccc(N2CC(NC(=O)c3ccc(S(=O)(=O)N(C)C)cc3)CC2=O)cc1C` (stereo not given), the survival is inactive: 92%.

As to `CCC(C)NC(=O)c1ccc2c(c1)sc1nc(-c3ccc(OC)cc3)cn12` (stereo not given), the survival was inactive: 59%.

As to `CC(=O)N1CCc2c(sc3c2c(=O)n(Cc2ccccc2)c(=O)n3Cc2ccc(Cl)cc2)C1`, the survival is inactive: 109%.

In the case of `CN1CCN(C(CNC(=O)c2ccc(F)cc2)c2ccc3c(c2)OCO3)CC1` (stereo not given), the survival was inactive: 78%.

On to `COc1ccc(OC)c(CCNC(=O)c2c(C)oc3ncn(CC(C)C)c(=O)c23)c1`, for which the survival was inactive: 75%.

In the case of `Cc1cc(C)c(Cn2c(=O)n(CCC(=O)NCCc3ccccc3)c(=O)c3ccccc32)c(C)c1`, the survival was inactive: 95%.

In the case of `CC(=O)Nc1ccc(C(=O)CSc2nc3ccccc3n2C)cc1`, the survival is inactive: 69%.

As for `CCCCCN1N=C(C)CC1=O`, the survival is active: 39%.

Regarding `O=C(O)c1sc(Nc2ccccc2)nc1-c1ccccc1`, the survival is inactive: 172%.

For `CCc1ccc2oc(-c3ccc(C)c(NC(=O)c4cc([N+](=O)[O-])ccc4N4CCOCC4)c3)nc2c1`, the survival is inactive: 54%.

`CC(C)Cc1cc(C(=O)NCc2ccc(Cl)cc2)no1`: the survival is inactive: 111%.

As to `CCOC(=O)C1=C(c2ccccc2)N=C2SCC(=O)N2C1c1ccc(O)c(OC)c1` (stereo not given), the survival is inactive: 78%.

With `COc1ccc(C(=O)NCCSc2c[nH]c3ccccc23)cc1OC`, the survival was inactive: 76%.

For the compound `Clc1ccc(CSc2ccc(-c3cccs3)nn2)cc1`, the survival was inactive: 118%.

On to `COc1ccc(-n2c(=O)c3c4c(sc3n(Cc3ccc(F)cc3)c2=O)CN(C(C)=O)CC4)c(OC)c1`, for which the survival is inactive: 120%.

`COC(=O)CN1C(=O)CSc2ccc(S(=O)(=O)Nc3ccc(F)c(Cl)c3)cc21`: the survival is inactive: 83%.

As to `CCC(CC)C(=O)N1c2ccccc2C(C)(c2ccccc2)CC1(C)C` (stereo not given), the survival was active: -5%.

For the compound `CSc1ncc(C(=O)Nc2cc(C)cc(C)c2)c(-c2ccccc2)n1`, the survival was inactive: 78%.

For the compound `CCOC(=O)C1=NNC2C(=O)N(c3cc(Cl)ccc3OC)C(=O)C12` (stereo not given), the survival is inactive: 74%.

Take `Cc1ccc(NC(=O)Nc2nnc(SCC(=O)N(C(C)C)C(C)C)s2)cc1`: the survival was inactive: 89%.

Regarding `COc1cccc(CNC(=O)c2c(C)nn(-c3ccc(F)cc3)c2-n2cccc2)c1`, the survival is inactive: 101%.

For `CCOC(=O)c1sc2ccccc2c1S(=O)(=O)Nc1ccc(OC)c(Cl)c1`, the survival is inactive: 89%.

In the case of `CCOc1ccc(NC(=O)Nc2nnc(N3CCCCC3C)s2)cc1` (stereo not given), the survival is inactive: 64%.

With `CCN(CC)c1ccc(C(=O)N2CCc3c([nH]c4ccccc34)C2c2ccc(F)cc2)cc1` (stereo not given), the survival was inactive: 85%.

`O=C(CNc1ccccc1Cl)N/N=C1\CCCc2ccccc21`: the survival was inactive: 74%.

With `N#Cc1cc2c(ccc3ccccc32)oc1=N`, the survival was inactive: 105%.

`CCOC(=O)c1c(C)[nH]c(C)c1S(=O)(=O)NCC(=O)Nc1cccc(SC)c1`: the survival was inactive: 66%.

In the case of `CCC1CCc2nc3sc(C(=O)Nc4cccc(F)c4)c(N)c3cc2C1` (stereo not given), the survival is inactive: 84%.

With `CCN(CC)c1ccc(C(=O)NCc2nc3cccnc3n2Cc2ccc(C)cc2)cc1`, the survival is inactive: 85%.

With `Cc1cccc(-c2nc3c4c(-c5ccccc5)c(-c5ccccc5)oc4ncn3n2)c1`, the survival is inactive: 129%.

`CC12CCC(C/C1=N\OC(=O)O)C2(C)C` (stereo not given): the survival was inactive: 87%.

As for `Cc1cccc(NC(=O)Cn2cc(S(=O)(=O)N3CCCC3)c(S(=O)(=O)N3CCCC3)c2)c1C`, the survival was inactive: 90%.

Consider `Oc1cccc(C(O)CNc2c3c(nc4cc(-c5cccc(F)c5)nn24)CCC3)c1` (stereo not given), for which the survival was inactive: 102%.

As for `O=C(CN1CCC(C(=O)c2ccccc2)CC1)NCc1cccs1`, the survival was inactive: 89%.

For the compound `Cc1c(C)c2c(cc(C)c3c(-c4ccc(Br)cc4)coc32)oc1=O`, the survival was inactive: 66%.

`CCOC(=O)c1cccc(NC(=O)CCn2c(=O)oc3ccccc32)c1`: the survival is active: 39%.

With `Cc1ccc(CSc2nnc([C@@H](N)C(C)C)o2)cc1`, the survival is inactive: 79%.

Turning to `CC(=O)c1ccc(NC(=O)Cn2c(=O)cc(C)c3c(C)nn(-c4cccc(F)c4)c32)cc1`, the survival was inactive: 81%.

In the case of `COc1ccc(C)cc1NC(=O)C(=O)NCCc1sc(-c2cccc(C)c2)nc1C`, the survival is inactive: 89%.

For the compound `Cc1ccccc1C(=O)Nc1ccc(S(=O)(=O)N2CCC(c3nc4ccccc4s3)CC2)cc1`, the survival is active: 40%.

Consider `O=C(O)CSc1nc2ccccc2c(=O)n1-c1ccccc1`, for which the survival was inactive: 78%.

Consider `COc1ccc(NC(=O)c2c(NCc3cccc(F)c3)sc3c2CCC3)c(OC)c1`, for which the survival is inactive: 85%.

As to `CC1CC(C)CN(C(=O)Cn2cnc3c2c(=O)n(C)c(=O)n3C)C1` (stereo not given), the survival was inactive: 107%.

Turning to `COc1cccc2sc(N(Cc3cccnc3)C(=O)c3ccco3)nc12`, the survival is inactive: 94%.

In the case of `Cc1nn(C)c(C)c1S(=O)(=O)N(CC(=O)NCCc1ccc(Cl)cc1)c1ccc(C(C)C)cc1`, the survival was inactive: 75%.

In the case of `Cc1cc(C)n(C(=O)c2ccccc2C(=O)O)n1`, the survival was inactive: 95%.

For the compound `CCCCOc1ccc(C2=NC(c3cccs3)=Nc3ccc(OC)cc3N2)cc1`, the survival is inactive: 88%.

Turning to `COc1ccc(OC)c(CNC(=O)c2c(C)oc3ncn(CC(C)C)c(=O)c23)c1`, the survival was inactive: 89%.

On to `COc1ccc(OC)c(CNS(=O)(=O)c2ccc3c(c2)oc(=O)n3C)c1`, for which the survival is inactive: 90%.

For the compound `COc1ccc(S(=O)(=O)N(CC(=O)N2CCc3ccccc3C2)c2ccc(C)cc2)cc1`, the survival is inactive: 52%.

The values above are taken from PubChem BioAssay AID463173 (ICCB-Longwood Screening Facility, Harvard Medical School, 2010).
